Test results published in PubChem BioAssay (NCATS).
The shares of active, inactive and inconclusive entries below differ from those in the screen. For part of these data: A potency beside an inconclusive call is a rough fit, not a confirmed value. Calls of active or inactive are those of the source. Calls follow the shape of the dose curve; as a rule, active = well fitted curve in the direction sought with a large enough effect; inconclusive = small, poorly fitted or top-dose-only effect, or another doubt; inactive = no such curve, though single readings can be large; an effect the other way counts as inactive or inconclusive.

Tests used:
[1] = Primary qHTS for inhibitors of nuclear receptor binding SET domain protein 2 (NSD2) in an isogenic RCH-ACV NSD2 p.E1099K mutant (9B) (AID 1645876); also: potency is read from the fitted curve at half-maximal effect; nearly all actives have a fitted effect of over 70% in size
[2] = target: Phospholipid hydroperoxide glutathione peroxidase GPX4 (Homo sapiens) (UniProt P36969); assay: Primary qHTS Assay for Inhibitors of Recombinant Selenoprotein Glutathione Peroxidase 4 (GPX4) (AID 1845192); also: potency is read from the fitted curve at half-maximal effect; nearly all actives have a fitted effect of over 65% in size
Chain of UniProt P36969 (P36969 whole entry, looked up): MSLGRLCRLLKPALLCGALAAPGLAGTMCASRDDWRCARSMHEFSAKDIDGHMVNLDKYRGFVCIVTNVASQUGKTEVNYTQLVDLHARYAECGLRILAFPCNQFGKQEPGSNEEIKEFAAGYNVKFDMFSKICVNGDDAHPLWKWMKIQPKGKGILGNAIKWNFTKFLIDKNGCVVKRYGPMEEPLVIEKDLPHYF
Procedure, shortened: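 NADPH consumption, followed by fluorescence at 340/450 nm between 0 and 15 min, reports GPX4 activity via coupled glutathione reductase (100 nM). Enzyme 200 nM was pre-exposed to compound 30 min; 0.5 mM cumene hydroperoxide and 1 mM GSH served as substrates.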

[3] = Primary qHTS for inhibitors of nuclear receptor binding SET domain protein 2 (NSD2) in an RCH-ACV wild type WT cells (2C) (AID 1645877); also: nearly all actives have a fitted effect of over 70% in size
Tags tell the direction and shape of the fitted curve.

Structure (SMILES)	Potency [1]	Potency [2]	Potency [3]
CC(C)Oc1ccc(-c2nc(-c3cccc4c3CC[C@@H]4NCCO)no2)cc1C#N	active: 14.8 µM	inconclusive: 25.5 µM [inhibitor, partial curve, poor fit]	
O=C1Cc2cc(C(=O)NC3C[C@H]4CC[C@@H](C3)N4S(=O)(=O)CC3CCN(CCCC(F)(F)F)CC3)c(Cl)cc2N1 (stereo partly drawn)			inactive
